Measured values published in the supplement of paper PMC3334620.
In all, about 33,000 sequences were measured (“E-score (-0.5 to 0.5)”: median about -0.032, highest 2% from about 0.36 on). Some of the results follow.

The sequences below were run against T1, Sko1 (UniProt Q02100) (assay: PBM E-score (8-mer binding enrichment) (E-score (-0.5 to 0.5)); higher = stronger / more preferred TF binding; most listed sequences are background and not binding sites). Settings: protein concentration: 200 nM; construct: GST-full length.
T1 sequence: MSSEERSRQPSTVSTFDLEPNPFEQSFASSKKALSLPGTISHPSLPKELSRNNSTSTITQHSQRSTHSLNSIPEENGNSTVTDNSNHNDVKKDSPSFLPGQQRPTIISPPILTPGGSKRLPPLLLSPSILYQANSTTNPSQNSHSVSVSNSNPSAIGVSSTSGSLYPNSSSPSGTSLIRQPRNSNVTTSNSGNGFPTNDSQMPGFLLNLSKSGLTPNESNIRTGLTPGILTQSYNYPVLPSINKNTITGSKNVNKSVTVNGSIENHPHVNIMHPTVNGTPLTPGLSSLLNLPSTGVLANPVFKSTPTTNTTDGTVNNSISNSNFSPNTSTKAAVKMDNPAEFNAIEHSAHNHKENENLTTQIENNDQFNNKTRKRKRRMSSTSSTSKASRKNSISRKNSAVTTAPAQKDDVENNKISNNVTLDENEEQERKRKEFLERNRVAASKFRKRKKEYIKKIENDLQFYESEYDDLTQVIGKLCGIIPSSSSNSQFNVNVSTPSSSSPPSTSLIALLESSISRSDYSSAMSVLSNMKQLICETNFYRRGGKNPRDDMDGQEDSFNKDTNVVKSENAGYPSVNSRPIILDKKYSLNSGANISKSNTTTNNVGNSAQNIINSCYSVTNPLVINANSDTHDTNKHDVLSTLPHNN
In short: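 E-scores (a modified Wilcoxon-Mann-Whitney statistic) were assigned by the Universal PBM Analysis Suite to every ungapped eight-base word pooled with its reverse complement. The input came from universal all-10-mer Agilent arrays made double-stranded by primer extension and probed with GST-tagged yeast transcription factors at about 100-200 nM. Fluorescent anti-GST detected bound protein, and masliner normalised the scans.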

Sequence	PBM E-score
AGCTTCAT	-0.0974
ACGCCTGG	0.0602
GTTTTTTA	0.145
GCTTCTCA	-0.269
CCGGTAGG	-0.244
AGTCTTTC	-0.185
AACTACTC	-0.0155
CCTCGGGA	-0.225
CACTCGGC	-0.243
AACTTTAC	0.171
ATGCACCA	0.0408
AAGCGAAT	0.145
GGATACCC	-0.197
CGCGTCCA	0.115
CGCCTTTC	-0.178
ATAAATGA	0.29
TAATTGAA	0.141
AATCCCAT	-0.0408
CGAGATCG	-0.116
GATCCCGC	-0.191
AGACGAAA	0.199
CCAGCGCC	-0.236

Sequence	PBM E-score
CCGAGTCC	-0.175
AAGATGCA	0.132
GGTAGTAA	-0.0858
AAGGTCGA	-0.0566
GGTCGAAC	-0.0711
AGATTGCG	0.188
GTATCTCA	0.243
GCGCGCTA	0.0617
CACCGTCA	0.233
CTGGGAAA	-0.0767
AGTCATAA	0.0121
CAGAGCTG	-0.238
AATCAGAC	0.115
AGATGACA	0.256
TCATCTAA	0.273
GGAGAAAA	-0.0864
TATCCGGA	-0.15
CCACAACG	0.103
CATCCACG	0.144
CAATCGTG	-0.029
CCGGGGCG	-0.302
GCCATGCA	-0.00453

Sequence	PBM E-score
ATTCTTTA	0.161
GCCGTAAA	0.107
GTCTAGTA	0.168
ATGGCTGC	-0.148
CCTAATAC	0.192
ACGGAACG	0.129
ACTAGTTA	0.0747
TCAGAAGA	-0.00031
CTTATAAA	0.129
CGCAAACA	0.221
CCCCTTGC	-0.309
CAGTGGCC	-0.122
CAAATAGC	0.178
CTCCTGTA	-0.117
ACGACCGC	-0.194
CTTACTAA	0.089
GATGAGAC	-0.00939
CGGGTCAG	-0.161
CGCGAAAG	0.0268
CTGCCTTC	-0.258
GCTCACCC	-0.158
AAGGCCAA	-0.187

Sequence	PBM E-score
AACATCAT	0.349
AAGCCCAT	-0.0876
AGACCTAT	0.105
CCTATTGA	0.0576
CATCCAGC	-0.0664
CCATGGCC	-0.365
AGGCGTCC	-0.26
GGCGGAAC	-0.315
GAGCTAGA	-0.11
AACAAAAG	0.105
GACTCTTA	0.0156
CCCTGAAC	0.0699
CTCTGAGA	-0.18
ACAATCAT	0.154
ATGTCTTG	-0.0188
AAGCGAAG	-0.0407
AGTGAATG	0.148
TACGATCA	0.226
GCGCAAGA	0.151
ATAGCGCA	0.0138
CGTGTATA	0.264
GACATAGA	0.154

Sequence	PBM E-score
TACCGCCA	-0.0605
CTCAAAAG	-0.0771
CGTATGCC	0.165
GCGCCAGA	-0.155
TCCATTAA	0.00567
GTATCCAC	0.0437
TTAGCAAA	0.225
AAAGTGCG	0.161
ATTCATAG	0.0985
CAATTGGC	0.0901
ACCGAACA	0.00244
CCGGAGCA	-0.283
GCTTGTAC	0.0364
AGCTCTGC	-0.369
TGTACAAA	0.124
AGAGTTAG	-0.0289
CTGTATAA	0.13
AGCTTGCG	0.145
AATGTAGA	0.119
AAATTAAT	0.229
TGACGCCA	0.453
